PubChem BioAssay AID624417 (National Center for Advancing Translational Sciences (NCATS), 2012)
The whole screen tested about 410,000 compounds, of which about 6,400 (1.6%) were called active. The shares of active, inactive and inconclusive entries below differ from those in the screen. Calls follow the shape of the dose curve; as a rule, active = well fitted inhibition curve with a large enough effect; inconclusive = small, poorly fitted or top-dose-only effect; inactive = no such curve, though single readings can be large or run the other way. Where the call is inconclusive, the potency comes from a doubtful curve fit.

What follows are molecules tested against Glucagon-like peptide 1 receptor (Homo sapiens) (UniProt P43220) (assay: qHTS of GLP-1 Receptor Inverse Agonists (Inhibition Mode)). Conditions: HEK293 GLP-1R CRE-luciferase, luminescence, 24 h, GLP-1R form is constitutively active; activity change, negative = inhibition: at 38.3 µM (top of the series) unless noted.
Chain of UniProt P43220 (P43220 whole entry, looked up): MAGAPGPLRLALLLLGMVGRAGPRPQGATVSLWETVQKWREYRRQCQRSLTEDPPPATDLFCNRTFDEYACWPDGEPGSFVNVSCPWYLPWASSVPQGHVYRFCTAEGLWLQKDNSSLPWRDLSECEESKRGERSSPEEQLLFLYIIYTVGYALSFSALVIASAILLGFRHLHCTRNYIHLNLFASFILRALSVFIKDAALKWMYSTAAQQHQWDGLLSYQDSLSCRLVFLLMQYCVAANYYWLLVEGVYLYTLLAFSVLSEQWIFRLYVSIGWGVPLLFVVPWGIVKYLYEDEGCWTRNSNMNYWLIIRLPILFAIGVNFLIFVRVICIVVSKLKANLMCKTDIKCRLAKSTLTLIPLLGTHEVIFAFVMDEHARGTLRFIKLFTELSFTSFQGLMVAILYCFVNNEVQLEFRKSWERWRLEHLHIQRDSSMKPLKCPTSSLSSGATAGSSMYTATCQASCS
Outline: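 Inverse agonism was detected as reduced cAMP-driven luciferase luminescence after 24 h compound treatment. The cells were HEK293 clones expressing constitutively active human GLP-1R with the reporter. Reporter-only and GPR119 cell lines served as counterscreen controls.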
% is scaled to controls: 0 for no effect and ±100 for the full control effect; potency is read from the fitted curve at half-maximal effect; tags tell the direction and shape of the fitted curve.
Also: nearly all actives have a fitted effect of over 55% in size.

Activity change, negative = inhibition, inactive:
CNC(=S)NNc1ccccc1[N+](=O)[O-] -0.911% [at 0.307 µM]
Nc1n[nH]c(CCCO)n1 0.146%
Cc1ccc(C)c(Nc2nc3c(S(=O)(=O)c4ccc(C(C)C)cc4)nnn3c3ccsc23)c1 30.6%
Cc1cc(C)nc(SCC(=O)c2ccc(F)cc2)n1 -22.5%
COc1cccc(NC(=O)N(C)C[C@@H]2Oc3ncc(Br)cc3C(=O)N([C@@H](C)CO)C[C@H]2C)c1 0.452%
Cc1ccc(NC(=O)Cn2cc3c(n2)CCCCC3)cc1 -4.75%
O=C1C=C(NCC2CCCO2)C2(CCCCC2)O1 (centres undefined) 0%
COc1cc(Br)cc(/C=C/c2ccc3cccc(O)c3n2)c1OC 37.7%
CCN(C(=O)c1cc2c(=O)[nH]c3ccc(C)cc3c2s1)c1cccc(C)c1 -5.37%
CCCc1c(C)c2ccc(O)c(CN3CCN(c4ccc(F)cc4)CC3)c2oc1=O 4.4%
COc1ccc(-c2csc(C(C)(NC(C)=O)c3ccc(OC)cc3)n2)cc1 (centres undefined) 1.68%
O=C(Nc1ccccn1)c1csc2c1CCCC2 0.366%

Activity change, negative = inhibition, inconclusive:
Cc1cc(NC(=O)Nc2ccc(OCc3ccccc3)cc2)n(C)n1 -62.9% [inhibitor]

Potency, active:
Cc1ccccc1CCNC(=O)c1ccc2c(c1)c(C)c(C)n2Cc1ccccc1 10 µM

Potency, inconclusive:
COC(C(=O)Nc1cccc(F)c1)c1ccccc1 (centres undefined) 2.24 µM [inhibitor, full curve]
CCOc1cccc(CNc2ccc(O)cc2)c1OCc1ccc(Cl)cc1Cl 28.2 µM [inhibitor, single point]
CC(C)(C)c1cc(NC(=O)Nc2ccc(Cl)cc2Cl)no1 10 µM [inhibitor, single point]
Cc1ccc(OCC(=O)N(c2ccccn2)C2CCCCC2)c(C)c1 11.2 µM [inhibitor, partial curve, poor fit]
Cc1cc2cc(CNC(=O)C(C)Oc3ccccc3)ccc2n1C (centres undefined) 14.1 µM [inhibitor, single point]
CCC(Sc1nc(=O)cc(N)n1-c1ccccc1)C(=O)Nc1cc(C)on1 (centres undefined) 10 µM [inhibitor, single point]
COc1ccc(N2CCN(Cc3nc(-c4ccc(Cl)cc4Cl)no3)CC2)cc1 0.794 µM [inhibitor, full curve, poor fit]
Cc1cc(C)c(-c2cc(NC(=O)COC(=O)c3ccc(NC(=O)CC#N)cc3)n(-c3ccccc3)n2)cc1C 10 µM [inhibitor, partial curve]
O=C1OCCN1C(=O)[C@H]1[C@H](c2ccccc2)C(c2cccc(Cl)c2)=NN1c1ccccc1 11.2 µM [inhibitor, single point]
CCOC(=O)Nc1ccc2c(c1)N(C(=O)CCN(C)C)c1ccccc1CC2 14.1 µM [inhibitor, partial curve, poor fit]
COC1=CC(=O)C(OC)=C(OC)C1=O 28.2 µM [inhibitor, single point]
CN1CCN(C2=Nc3ccccc3Oc3ccc(Cl)cc32)CC1 5.62 µM [inhibitor, full curve, poor fit]
COc1ccc2cc(C(N)=O)/c(=N\NC(=O)c3ccccc3)oc2c1 3.55 µM [inhibitor, partial curve]
Cc1cccc(N2CCN(C(=O)c3c(C)oc4ncnc(N5CCCCC5)c34)CC2)c1C 20 µM [inhibitor, single point]
CC(C)n1c(=N)c(C(=O)NCCc2ccccc2)cc2c(=O)n3ccccc3nc21 28.2 µM [inhibitor, single point]
CCCCCCCCN1C(=O)[C@H](CC(=O)N2CCCC2)C[C@@]2(C(=O)OC)CC(C)(C)CC=C12 31.6 µM [inhibitor, single point]
CC(NC(=O)CN(C)CC(=O)Nc1ccc(Cl)cc1)c1ccc(F)cc1 (centres undefined) 20 µM [inhibitor, single point]
CC(C)n1c(CN(C)c2ccccc2)nc2ccccc21 12.6 µM [inhibitor, single point]
CCCCC(=O)N(CCOC)c1nnc(-c2ccccc2C)s1 0.316 µM [inhibitor, full curve, poor fit]
N#CC1=C(N)N=C(SCc2cccc3ccccc23)C(C(N)=O)C12CCCCC2 (centres undefined) 12.6 µM [inhibitor, partial curve, poor fit]
O=C1c2ccccc2-c2cc(Br)ccc2NC1O (centres undefined) 28.2 µM [inhibitor, single point]
CC(=O)c1ccc(-c2cccs2)s1 12.6 µM [inhibitor, single point]
CCc1ccccc1Oc1nc(NCc2ccccc2)nc2ccsc12 15.8 µM [inhibitor, partial curve, poor fit]
O=C(NN=Cc1ccccc1)C(Oc1ccccc1)c1ccccc1 (centres undefined) 22.4 µM [inhibitor, partial curve, poor fit]
CCOC(=O)c1ccc(NC(=S)NNC(C)(C)C)cc1 3.55 µM [inhibitor, full curve, poor fit]
COc1cc(CN2CCNC(=O)C2CC(=O)NCCCC2CCCC2)cc(OC)c1 (centres undefined) 10 µM [inhibitor, partial curve, poor fit]
CCN(c1ccccc1)c1ncnc2c1cnn2-c1ccc(C)cc1C 3.55 µM [inhibitor, partial curve, poor fit]
COc1ccccc1CNC(=O)CN1C(=O)CSc2ccc(S(=O)(=O)N3CCCCC3)cc21 3.16 µM [inhibitor, partial curve]
COC(=O)c1c(Oc2ccc(C(C)=O)cc2)nnc(-c2ccccc2)c1-c1ccccc1 6.31 µM [inhibitor, partial curve, poor fit]
Cc1ccc(CCc2nnc(SCC(=O)Nc3ccccc3Cl)n2-c2ccccc2)o1 7.08 µM [inhibitor, partial curve, poor fit]
